# Test results taken from the supplement of paper PMC10670038.
# Where a name gives a salt, the structure may show the parent alone. ± gives the standard deviation of the averaged measurements. In all, about 2,000 compounds were measured (“relative cell viability vs DMSO, compound + 0.2 uM CuET”: median about 1, lowest 2% from about 0.25 on). The list shows a part of the results.
# Test system: TE10
# Assay: relative cell viability vs DMSO, compound + 0.2 uM CuET (fraction); TE10 is an esophageal squamous carcinoma line; higher = less cytotoxic
# Conditions: 2 µM; co-treatment: CuET (bis(diethyldithiocarbamate)copper) 0.2 uM; 48 h
# Method: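 TE10 ESCC cells (1,000/well, 384-well plates) were treated with Selleck bioactive library compounds at 2 uM combined with 0.2 uM CuET (copper diethyldithiocarbamate) for 48 h. Viability was read by CellTiter-Glo and expressed relative to DMSO wells. Two technical replicates (A, B).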
row,Compound,relative cell viability
1,Clc1ccc(CCC(Cn2ccnc2)Sc2c(Cl)cccc2Cl)cc1 (configuration not stated) [Butoconazole nitrate],0.613 ± 0.089
2,N#Cc1ccc(C(c2ccc(C#N)cc2)n2cncn2)cc1 [Letrozole],1.02 ± 0.16
3,O=C(Nc1cccc(Cl)c1)c1ccccn1,1.24 ± 0.1
4,CCOC(=O)[C@@H](N)Cc1ccc(-c2cc(O[C@H](c3ccc(Cl)cc3-n3ccc(C)n3)C(F)(F)F)nc(N)n2)cc1 [Telotristat Etiprate (LX 1606 Hippurate)],0.634 ± 0.087
5,N=C(NCCCCCCNC(=N)NC(=N)Nc1ccc(Cl)cc1)NC(=N)Nc1ccc(Cl)cc1 [Chlorhexidine HCl],1.15 ± 0.21
6,COc1c2occc2cc2ccc(=O)oc12 [Methoxsalen],0.968 ± 0.056
7,CC(C)CC(N)=O [Isovaleramide],1.29 ± 0.042
8,CN1CCN(C2=Nc3ccccc3Oc3ccc(Cl)cc32)CC1 [Loxapine Succinate],0.969 ± 0.015
9,Cc1nnc(C(=O)NC(C)(C)c2nc(C(=O)NCc3ccc(F)cc3)c(O)c(=O)n2C)o1 [Raltegravir (MK-0518)],0.845 ± 0.0038
10,COC(=O)c1ccc2c(c1)nc(NC(=O)c1ccccc1)n2CCCc1ccccc1,0.796 ± 0.021
11,c1ccc(NCc2ccc(CNc3ccccn3)cc2)nc1,1.05 ± 0.03
12,O=C(NC[C@H]1CN(c2ccc(N3CCOCC3=O)cc2)C(=O)O1)c1ccc(Cl)s1 [Rivaroxaban],0.809 ± 0.38
13,C[C@@H]1C[C@H]2[C@@H]3C[C@H](F)C4=CC(=O)C=C[C@]4(C)[C@@]3(F)[C@@H](O)C[C@]2(C)[C@@]1(O)C(=O)CO [Flumethasone],0.876 ± 0.027
14,Cc1cc2c(cc1CC(=O)c1sccc1S(=O)(=O)Nc1onc(C)c1Cl)OCO2 [Sitaxentan sodium],1.37 ± 0.41
15,COc1ccc(-c2ccc3c(N4CCOC[C@@H]4C)nc(N4CCOC[C@@H]4C)nc3n2)cc1CO,0.659 ± 0.037
16,CC(C)C[C@H](NP(=O)(O)O[C@@H]1O[C@@H](C)[C@H](O)[C@@H](O)[C@H]1O)C(=O)N[C@@H](Cc1c[nH]c2ccccc12)C(=O)O [Phosphoramidon Disodium Salt],1.22 ± 0.018
17,COc1c(C)c(C(=O)c2ccc(N)c(C(=O)O)c2)n2ccccc12,1.28 ± 0.018
18,Cc1c(C(=O)Nc2ccc(Oc3ccnc4[nH]cc(-c5ccccc5)c34)c(F)c2)c(=O)n(-c2ccc(F)cc2)n1C,0.94 ± 0.061
19,CN[C@@H](C)C(=O)N[C@H](C(=O)N1CCC[C@H]1c1nc(C(=O)c2ccc(F)cc2)cs1)C1CCCCC1,0.682 ± 0.074
20,CCCCCCCCCCCCCCCC(=O)OCC(O)C1OC(=O)C(O)=C1O [L-Ascorbyl 6-palmitate],1.02 ± 0.04
21,CCCc1cc(C)[nH]c(=O)c1CNC(=O)c1cc(-c2ccc(N3CCN(C(C)C)CC3)nc2)cc2c1cnn2C(C)C,1.06 ± 0.06
22,NC(=O)c1ccc(N(C(N)=O)c2c(F)cccc2F)nc1-c1ccc(F)cc1F,1.21 ± 0.051
23,CC(=O)Oc1ccccc1C(=O)Nc1ncc([N+](=O)[O-])s1 [Nitazoxanide],0.893 ± 0.026
24,CC(C)(C)C(=O)Nc1ccc2c(c1)C(=O)C(=O)c1ccccc1-2,0.026 ± 0.0042

row,Compound,relative cell viability
1,Nc1c(CC(=O)O)cccc1C(=O)c1ccccc1 [Amfenac Sodium Monohydrate],1.121 ± 0.0097
2,COc1ccc([C@@H]2CC(=O)c3c(O)cc(O)cc3O2)cc1O [Hesperetin],1.1 ± 0.052
3,CCOC(=O)c1[nH]c2cc(Cl)ccc2c1C(C(=O)NC(C)(C)C)N(C=O)Cc1ccc(Cl)cc1 (configuration not stated),1.07 ± 0.056
4,CCCCN1CCCCC1C(=O)Nc1c(C)cccc1C (configuration not stated) [Bupivacaine HCl],1.03 ± 0.16
5,C=C1/C(=C\C=C2/CCC[C@]3(C)[C@@H]([C@H](C)/C=C/[C@H](C)C(C)C)CC[C@@H]23)C[C@@H](O)C[C@@H]1O [Doxercalciferol],1.123 ± 0.0018
6,C[C@H]1O[C@@H](Oc2c(-c3cc(O)c(O)c(O)c3)oc3cc(O)cc(O)c3c2=O)[C@@H](O)[C@@H](O)[C@@H]1O [Myricitrin],1.05 ± 0.1
7,Cc1ccc2c(=O)c3cccc(CC(=O)O)c3oc2c1C [DMXAA (Vadimezan)],1.02 ± 0.035
8,CC(=O)[C@H]1CC[C@H]2[C@@H]3CC=C4C[C@@H](O)CC[C@]4(C)[C@H]3CC[C@]12C [Pregnenolone],1.05 ± 0.11
9,COc1ccc(CC2c3cc(OC)c(OC)cc3CC[N+]2(C)CCC(=O)OCCCCCOC(=O)CC[N+]2(C)CCc3cc(OC)c(OC)cc3C2Cc2ccc(OC)c(OC)c2)cc1OC (configuration not stated) [Atracurium Besylate],0.724 ± 0.024
10,CN(C)c1ccc(C(=C2C=CC(=[N+](C)C)C=C2)c2ccc(N(C)C)cc2)cc1 [Crystal Violet],0.308 ± 0.029
11,CC(C(=O)O)c1ccc2c(c1)CC(=O)c1ccccc1S2 (configuration not stated) [Zaltoprofen],0.452 ± 0.49
12,Oc1cc2c(cc1O)[C@@H]1c3ccc(O)c(O)c3OC[C@]1(O)C2 [Hematoxylin],1.02 ± 0.17
13,Cc1nc(-c2ccc(OCC(C)C)c(C#N)c2)sc1C(=O)O [Febuxostat],1.01 ± 0.081
14,Cc1cc(Nc2nc(N[C@@H](C)c3ccc(F)cc3)c(C#N)cc2F)n[nH]1,0.88387 ± 0.00071
15,Cc1nc(Nc2ncc(C(=O)Nc3c(C)cccc3Cl)s2)cc(N2CCN(CCO)CC2)n1 [Dasatinib Monohydrate],1.06 ± 0.12
16,Cc1nc(Nc2ncc(C(=O)Nc3c(C)cccc3Cl)s2)cc(N2CCN(CCO)CC2)n1 [Dasatinib],1.19 ± 0.016
17,COc1cc(N2CCC(N3CCN(C)CC3)CC2)ccc1Nc1ncnc(Nc2ccccc2S(=O)(=O)C(C)C)n1,1.1 ± 0.052
18,CCOC(=O)c1c(CSc2ccccc2)n(C)c2cc(Br)c(O)c(CN(C)C)c12 [Arbidol HCl],0.778 ± 0.12
19,CCN1CCN(Cc2ccc(-c3cc4c(N[C@H](C)c5ccccc5)ncnc4[nH]3)cc2)CC1,1.11 ± 0.1
20,COc1cc([C@@H]2c3cc4c(cc3[C@@H](O[C@@H]3O[C@@H]5CO[C@@H](c6cccs6)O[C@H]5[C@H](O)[C@H]3O)[C@H]3COC(=O)[C@H]23)OCO4)cc(OC)c1O [Teniposide],0.661 ± 0.023
21,O=c1[nH]cnc2c1ncn2[C@@H]1O[C@H](CO)[C@@H](O)[C@H]1O [Inosine],1.05 ± 0.041
22,CCOc1ccccc1OC(c1ccccc1)C1CNCCO1 (configuration not stated) [Reboxetine mesylate],1.2 ± 0.37
23,O=C1NC(=O)/C(=C/c2ccc3c(c2)OC(F)(F)O3)S1,0.434 ± 0.49
